Read counts are not given, so values of variants with three or more changes are uncertain.

B1: OR4K15 (parent)
chain: GUUAACGGUCAUAGGCCAUGGAAACUAGGAGCACCAUUUCGCUGCCAGUGAAGAAAUGAACAAAGAAAAUCUGGGCCAGGCAGGCAUCAAAAGAAAUAGUCUUGCGCUCAACCAGAAAGUCUGUAAUCAUUUUAAGGGUA

Variants of B1 are the subject of this series. Kind of series: self-cleavage, relative activity (ratio to wild type); higher = more cleavage; in vitro, sequencing; the parent is a self-cleaving ribozyme.
Turning to U9A A11G A63G A67G G106A, the self-cleavage is 0.08.
Next, C6U A30U A66U U122G: 0.95; A5U A60G A125G: 1.05; A5U U57C A59G: 0.89.
The same measure for A5U G31A A62G U108C: 0.05.
For the variant G7A A52U A90G, the self-cleavage was 2.01.
The same measure for A5G C25U U38A A60G: 0.71; for C6G A24G U57C A68U: 1.15; for A5G C17U A30G A69G G138A: 0.6.
Next, U9A A22G A66G: 1; U9A A66G A95G U108C A114C: 0.01.
Consider A5G U37A A94U A111G, for which the self-cleavage is 0.2.
Next, G7U A90G A92G U124C: 0.76.
Take G8A A59G A78G: the self-cleavage stood at 0.28.
Take A5G U9C A11G U38C A118G: the self-cleavage was found to be 1.07.
As to A5U A22G U130C, the self-cleavage was 0.68.
The same measure for C6U A60G A140G: 0.48; for G7A A67G U100C: 2.24.
Turning to A5G G14A A30G C101U, the self-cleavage turned out to be 0.4.
Consider A5G U37C U72C, for which the self-cleavage is 0.33.
With A5U A18G A36U A54G A59G, the self-cleavage was 1.06.
Next, A5G U38C G74U: 0.33; G7A U12C A54G A92G: 1.92; G7U U87C A96G A116G A126U: 0.41.
The same measure for A5G U12C A22G A27G C32U A54G: 1.42; for A5G G7A A59G A68G: 1.41.
The same measure for G7A A47U U87C A110U: 0.63.
For the variant A5G U19A A36G C105U, the self-cleavage was determined as 0.39.
With A5G U39A A67G, the self-cleavage stood at 1.58.
Next, G8A A23G U39C A90G U120C: 0.18; U9A A64G A96C: 0.45; G7A G99A A110U: 0.42.
The same measure for G7A A30G A68G: 1.33.
For A5U U102C A116U, the self-cleavage was 0.4.
With C6U A56G U120C U139C A140G, the self-cleavage is 0.25.
With A5U U38C A64C, the self-cleavage was 1.07.
Next, A5U A22G U72C A118G: 0.21.
On to C6U A62U U72C U103A, for which the self-cleavage is 0.
The same measure for G7A U9C A11G A51U A56G: 0.51.
Next, A5G U87C U122C: 0.58.
With A5G U39C A47G A54G, the self-cleavage worked out at 1.27.
Consider G8A A54G U57G A62G A96G U102C A116G, for which the self-cleavage was determined as 1.2.
With C6U A52U A86G A117G, the self-cleavage turned out to be 1.55.
In the case of G7U A22G A23G A126G, the self-cleavage stood at 0.78.
The same measure for A5G U49C A52G: 0.47; for A5G C45A G53U U122A A134G: 1.16; for A5G G8U U39C A68G A78C A118G A135G: 0.43.
The same measure for U9A A24G A30G U37C A94G: 1.61.
Take G7C A52G A89G: the self-cleavage worked out at 1.78.
C6U A30U A96U U122C: the self-cleavage was 0.48.
Next, C6A U37G U39C A55G U87C A111G: 0.04.
Next, G8A A56G A64G A86U U87C A116G U127A: 0.46; U9A A78U A91G U120C U122A: 0.05.
For C6A A27G A60G, the self-cleavage was 0.86.
For the variant A5G U57C A60G, the self-cleavage was determined as 0.48.
Next, G8A U19C A126G: 1.19.
Next, A5G U9C C42U U87A U130C: 1.24.
Turning to A5G C34U U39A U57C G83A A129G, the self-cleavage worked out at 0.96.
For A5G C40U A54U A69C G75C, the self-cleavage was determined as 0.2.
As for A5U U39C A67U U131C, the self-cleavage was found to be 1.49.
Turning to A5U G106A U139C, the self-cleavage came to 0.
Next, A5G U38A A94G U97A U130C: 0.7; G8U A36G A62G A89U: 0.91; A5U U12G A52G A95U A111G: 0.13.
For G7U U39C U108A, the self-cleavage stood at 0.08.
Next, G8A A30G U100C: 1.97; G7A A52G A59G A63G A116U: 0.33; G7A A24G U38C U122C: 1.15.
Turning to C6U C25A U132C A140G, the self-cleavage came to 1.06.
With A5G U57C A63U, the self-cleavage turned out to be 1.92.
Take A5G U43A A55G: the self-cleavage turned out to be 0.79.
Consider U9A A116G A126G, for which the self-cleavage amounted to 0.15.
The same measure for G7A C17U A22G G44U A59G A63G A82C A86G: 0.19; for A5G U108C U132C: 0.05; for G7A U9C A11C A68C U102A: 1.17.
The same measure for A5G U38C U122C: 0.53.
The same measure for A5G U9A A64G U100C: 1.02; for A5U U57G U120C: 1.24; for A5U A47G U57G C85G: 0.46.
Regarding U9A A52G U57A A64U A140G, the self-cleavage came out at 1.09.
Next, U9A U19C A22U A51G: 0.47; A5U G20U A24G A36G A62G G73U: 0.28; A5G U87A A110G: 0.09.

For the origin of these results see the RNAGym collection of RNA variant scans (doi:10.7554/elife.90254).
